Data reported in PubChem BioAssay AID1963576 (National Center for Advancing Translational Sciences (NCATS), 2024).
Screen size: about 46,000 compounds; about 60 (0.1%) were called active. About 3% were inconclusive and are not listed. Calls follow the shape of the dose curve; as a rule, active = well fitted inhibition curve with a large enough effect; inconclusive = small, poorly fitted or top-dose-only effect; inactive = no such curve, though single readings can be large or run the other way. The list shows a part of the results.

Assay: Primary qHTS assay for Inhibitors of ovarian cancer metastasis using an organotypic tumor microenvironment (TME) model. Also: nearly all actives have a fitted effect of over 65% in size.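 As to activity change, negative = inhibition: plate controls were DMSO wells for no effect and tomatine positive control wells for full effect.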
Details: SKOV3ip1-GFP adhesion/invasion on 3D omental model, fluorescence; series mostly up to 45.8 µM; activity change, negative = inhibition: at the top concentration
Summary of the method: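 Primary human omental fibroblast/mesothelial 3D culture pre-formed 48 h. SKOV3ip1-GFP cells added with compounds (0.36-46 umol/L), incubated 2 h RT/16 h 37 C, fixed; GFP cells quantified at 488/509 nm.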

outcome, inactive:
COc1ccc(NS(=O)(=O)c2ccc(-c3cnc(C4CC4)o3)cc2)cc1Cl, Cn1c(SCc2cc(=O)c3cc(Cl)ccc3[nH]2)nnc1-c1ccccc1, CCN(CC)c1ccc(C2C(C(=O)Nc3ccccc3C)=C(C)Nc3ncnn32)cc1 (stereo unspecified), COC(=O)CCCCCn1c(-c2ccccc2)cn2c3c(=O)n(C)c(=O)n(C)c3nc12, CCCCC(=O)Nc1ccc(OCc2cc(=O)n3c(C)csc3n2)cc1, Cc1cccc(CCn2c(=O)c3ccccc3n(CC(=O)Nc3ccccc3F)c2=O)c1, O=C(Nc1ccc(F)cc1F)c1cc(S(=O)(=O)N2CCCCC2)c[nH]1, NS(=O)(=O)c1ccc(NC(=O)COc2ccc(S(=O)(=O)NC3CCCCC3)cc2)cc1, CC(=O)c1c(C)oc2c1cc(NS(=O)(=O)c1c(C)cc(C)cc1C)c1ccccc12, CCOC(=O)CSc1nc2cc(OC)c(OC)cc2c2nc(-c3ccccc3)nn12, O=C1CS(=O)(=O)C2(C(=O)N(Cc3ccccc3)c3ccccc32)N1c1ccc(F)c(Cl)c1 (stereo unspecified), CCOc1ccc(S(=O)(=O)Nc2cccc(OC)c2)c2cccnc12, COc1ccc(S(=O)(=O)N(CC(=O)Nc2ccccc2Cl)Cc2ccccc2)cc1, CNC(=O)c1cnc2sc(N3CCCCCC3)nn2c1=O, COc1ccc(Cl)cc1NC(=O)Cn1c(=O)c2ccccc2n2nncc12

Activity change, negative = inhibition, inactive:
CC1CCN(S(=O)(=O)c2ccc3nc(NCc4ccccc4)ccc3c2)CC1 -7.26%, COCCNC(=O)CCc1c(C)n(C)c2cc(-c3cc(OC)c(OC)c(OC)c3)nn2c1=O 17.9%, COc1ccc(C(CNC(=O)c2oc3cc(C)c(Cl)cc3c2C)N2CCCCC2)cc1 (stereo unspecified) 4.99%, COc1cccc(Nc2nc3ccccc3c3nncn23)c1 -7.17%, COC(=O)c1scc(-c2ccc(C)cc2)c1S(=O)(=O)N1CCN(c2ccc(C)cc2C)CC1 2.19%, O=C(Cn1nc(-c2ccc(Cl)cc2)c2ccccc2c1=O)Nc1cccc(C(F)(F)F)c1 -2.43%, Cn1c(=O)c(=O)n(C)c2cc(C(=O)NCc3ccccc3Cl)ccc21 -5.03%, O=C(NCc1ccccc1Cl)c1c2c(nc3ccccc13)C(=O)N(C1CCCCC1)C2 1.84%, CCN(Cc1ccccc1)Cc1c(O)ccc2c(=O)c(-c3ccc(Cl)cc3)c(C(F)(F)F)oc12 1.69%, Cc1cc2c(cc1NC(=O)c1ccccc1Cl)n(C)c(=O)c(=O)n2C -5.96%, COc1ccc(OC)c(C(=O)CSc2ncc3c(n2)-c2ccccc2N(Cc2ccccc2C)S3(=O)=O)c1 6.44%, Cc1ccn2c(=O)cc(CSc3nnc(C)s3)nc2c1 14.3%, Cc1ccn2cc(CNC(=O)c3cccc(C(F)(F)F)c3)nc2c1 -12.3%, Cc1cccc(-c2noc(-c3ccccc3OCC(=O)Nc3ccccc3[N+](=O)[O-])n2)c1 3.55%, Cc1ccc2nc(-c3ccsc3)c(Nc3ccc(Cl)cc3)n2c1 7.95%, COc1ccc(-c2nnc(SCC(=O)N3CCc4ccccc43)o2)cc1OC 4.53%, CCN(CC)CCCNC(=O)c1cn(CC(C)C)c(=O)c2c1c1ccccc1n2C -7.18%, COc1ccc(OCC(=O)N(Cc2sccc2C)C2CCS(=O)(=O)C2)cc1 (stereo unspecified) 4.05%, CCOC(=O)c1ccc(NC(=O)C(C)Sc2nc(=O)cc(N)n2CCc2ccccc2)cc1 (stereo unspecified) 1.31%, COc1ccc(C(=O)CCC(=O)Nc2ccc(F)cc2F)cc1 0.673%, COc1ccc(F)cc1S(=O)(=O)Nc1ccc2c(c1)CCCN2C(=O)c1cccs1 6.35%, CCn1c2c(c(=O)n3ncc(C(=O)N4CCN(c5ccc(C(C)=O)cc5)CC4)c13)CN(Cc1ccc(OC)cc1)CC2 -5.32%, Cc1ccc(C)c(N2C(=O)N(Cc3cccc(C(F)(F)F)c3)c3ccccc3S2(=O)=O)c1 22.3%, CCN(CC)C(=O)Cn1c(=O)n(Cc2ccc(C(=O)NCCCOC)cc2)c(=O)c2ccccc21 -8.42%, CCOC(=O)C1=C(C)N=C2SCCC(=O)N2C1c1ccc(OCc2ccccc2)c(OC)c1 (stereo unspecified) -3.62%, Cc1cc(NC(=O)c2cc(Cl)ccc2Cl)ccc1-c1cc2ccccc2oc1=O -15.1%, COC(=O)c1sccc1S(=O)(=O)N(CC(=O)NCc1ccc(C)cc1)c1ccc(C)c(C)c1 -2.96%, COc1ccc(NS(=O)(=O)c2ccc3[nH]c(=O)ccc3c2)cc1OC -13.8%, COc1cccc(-n2nnc(-c3nc(-c4cccs4)no3)c2N)c1 6.3%, COc1ccccc1C(=O)Oc1c(Sc2ccccc2)c(C)nn1-c1ccccc1 -3.87%, O=C(c1ccc(F)cc1)N1CCC[C@H](c2nc(-c3ccc(F)cc3)no2)C1 8.13%, COc1cc(OC)cc(C(=O)Nc2ccc3nc4n(c(=O)c3c2)CCCCC4)c1 -4.44%, O=C(Nc1cccc(Cl)c1)c1cc(-c2ccc3c(c2)OCO3)on1 -5.97%, Cc1ccc(CCNC(=O)CN2C(=O)COc3ccc(S(=O)(=O)N4CCCCCC4)cc32)cc1 9.83%, CN1C(=O)c2ccccc2Sc2ccc(NC(=O)NCc3ccc(Cl)cc3)cc21 1.18%, CCOc1ccc(N(CC)C(=O)CCc2nc(-c3ccccc3F)no2)cc1 1.59%, COc1ccc(C(=O)Nc2nc3ccccc3n2CCOc2ccc(Cl)cc2)cc1 -6.71%, CCc1ccc(NC(=O)C(Cc2ccccc2)NS(=O)(=O)c2ccc3c(c2)c(=O)n(C)c(=O)n3C)cc1 (stereo unspecified) 0.659%, CCCOc1ccc(Oc2nc(NCC(C)C)nc(N(C)C)n2)nn1 -15.3%, Cc1cccn2c(=O)cc(CSc3nnc(NC(=O)c4ccc(F)cc4)s3)nc12 -8.17%, O=C(NCCc1ccccc1)c1ccc(Cn2c(SCc3ccccc3)nc3cccnc32)cc1 1.32%, COc1cccc(NC(=O)Cn2nc(C)c3c(C)n(-c4ccccc4)nc3c2=O)c1 -1.46%, CCC(Sc1nnc(-c2ccc(OC)c(OC)c2)c(-c2ccc(OC)c(OC)c2)n1)C(=O)NC1CCCC1 (stereo unspecified) -4.55%, CCC(C(=O)Nc1ccc(C)c(Cl)c1)n1c(=O)c(-c2ccccc2NC(C)=O)nc2ccccc21 (stereo unspecified) 0.955%, Cc1cccc(C)c1NC(=O)c1sc(-n2nc(C)c(Cc3ccc4c(c3)OCO4)c2C)nc1C -3.49%, Cc1nc(-n2nc(C)c(CCC(C)C)c2C)sc1C(=O)Nc1cccc(Cl)c1 -21.5%
